Experimental findings from the supplement of paper PMC4967469 are described below.

Lines with a small IC50 respond at low doses; a limit (>, <) means that the fit lies beyond the doses tested. The AUC spans the tested range (256-fold, ending at the top dose) of the same fit; values near 1 show little effect. For some of these results: Any top dose called inferred was derived from the fitted curves, not read from the paper.

Common to all, as to experiment: Viability of human cancer cell lines after 72 h of drug (GDSC screen)
Compound in one experiment: O=C(O)c1ccc(-c2c[nH]c3ncc(-c4ccccc4)cc23)cc1C1CCCC1 [GSK-650394]
Conditions: top dose 16 µM; top dose inferred. The method, then:
(§1)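 Human cancer cell lines in 384-well plates, medium with 10% serum, drug for 72 h over a 256-fold dose range (nine 2-fold or five 4-fold steps up to the top dose). Adherent lines were fixed and stained with the nucleic acid dye Syto60, suspension lines read with resazurin; signal relative to control wells, capped at 0 and 100%. One two-parameter sigmoid per drug and line, fitted in a mixed model over all curves with the slope shared within a line.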

Compound in a further experiment: COc1cc(C(=O)NC2CCN(C)CC2)ccc1Nc1ncc2c(n1)N(C1CCCC1)C(C)CC(=O)N2C [NPK76-II-72-1]
Conditions: top dose 10.24 µM; top dose inferred. How it is done:
as §1

Compound in a further experiment: COc1ccc(C(=O)CC2(O)C(=O)Nc3c(Cl)ccc(Cl)c32)cc1 [YK 4-279]
Conditions: top dose 10 µM. The method, then: as §1

Compound in another experiment: C=C(c1ccc(C(=O)O)cc1)c1cc2c(cc1C)C(C)(C)CCC2(C)C [Bexarotene]
Conditions: top dose 8 µM. The method, then:
as §1

Compound in another experiment: NC(=O)Nc1cc(-c2cccc(F)c2)sc1C(=O)N[C@H]1CCCNC1 [AZD7762]
Particulars: top dose 2 µM. How it is done:
as §1

Compound in another experiment: Cc1ccc2nc(NCCN)c3ncc(C)n3c2c1 [BMS-345541]
Conditions: top dose 16 µM. How it is done: as §1

Compound in a further experiment: Oc1nc(-c2ccc(C(F)(F)F)cc2)nc2c1CSCC2 [XAV 939]
Conditions: top dose 5 µM; top dose inferred. The method, then: as §1

As for 22RV1 (prostate, adherent), the AUC with GSK-650394 came out at 0.934; with NPK76-II-72-1 it was 0.849; in the experiment with YK 4-279, 0.874; with Bexarotene, 0.932; with AZD7762, 0.868; with BMS-345541, 0.846. In addition, the AUC with XAV 939 came out at 0.962. Besides, the concentration for half-maximal inhibition (IC50) in the experiment with GSK-650394 is greater than 16 µM; with NPK76-II-72-1 it was greater than 10.2 µM; with YK 4-279, greater than 10 µM; with Bexarotene, greater than 8 µM; with AZD7762, greater than 2 µM; with BMS-345541, greater than 16 µM. Further, in the experiment with XAV 939, the 50% inhibitory concentration (IC50) was greater than 5 µM.

For “A427 (non-small cell lung carcinoma, adherent)”, the AUC in the experiment with GSK-650394 was determined as 0.576; with NPK76-II-72-1, 0.878; in the experiment with YK 4-279, 0.713; with AZD7762, 0.569; with BMS-345541, 0.917; with XAV 939, 0.95. Besides, the IC50 was 1.62 µM with GSK-650394; greater than 10.2 µM with NPK76-II-72-1; 2.51 µM with YK 4-279; 0.193 µM with AZD7762; greater than 16 µM with BMS-345541; greater than 5 µM with XAV 939.

Consider A431 (skin, adherent), for which the AUC in the experiment with GSK-650394 is 0.564; in the experiment with NPK76-II-72-1 it was 0.719; in the experiment with YK 4-279 it was 0.646; with Bexarotene, 0.951; with AZD7762 it was 0.795; with BMS-345541, 0.678. The AUC with XAV 939 was found to be 0.986. The IC50 with GSK-650394 is 1.49 µM; with NPK76-II-72-1 it was 2.58 µM; with YK 4-279, 1.56 µM; in the experiment with Bexarotene it was greater than 8 µM; with AZD7762, 0.885 µM; with BMS-345541, 3.06 µM. In the experiment with XAV 939, the IC50 is greater than 5 µM.

For A2780 (ovary, semi-adherent), the AUC in the experiment with GSK-650394 turned out to be 0.892; with NPK76-II-72-1, 0.773; in the experiment with YK 4-279, 0.733; with Bexarotene it was 0.964; in the experiment with AZD7762, 0.777; in the experiment with BMS-345541 it was 0.617. Besides, the AUC with XAV 939 was determined as 0.972. The 50% inhibitory concentration (IC50) in the experiment with GSK-650394 is greater than 16 µM; with NPK76-II-72-1, 4.14 µM; with YK 4-279, 2.97 µM; in the experiment with Bexarotene, greater than 8 µM; with AZD7762, 0.83 µM; in the experiment with BMS-345541 it was 2.13 µM. Besides, the concentration for half-maximal inhibition (IC50) with XAV 939 was greater than 5 µM.

Regarding ACHN (kidney, adherent), the AUC with GSK-650394 stood at 0.789; with NPK76-II-72-1, 0.964; in the experiment with YK 4-279, 0.819; with Bexarotene, 0.945; in the experiment with AZD7762, 0.52; with BMS-345541, 0.893. Further, the AUC with XAV 939 is 0.96. The half-inhibitory concentration (IC50) with GSK-650394 was 8.15 µM; with NPK76-II-72-1, greater than 10.2 µM; in the experiment with YK 4-279, 6.74 µM; with Bexarotene, greater than 8 µM; in the experiment with AZD7762, 0.143 µM; in the experiment with BMS-345541, greater than 16 µM. The half-inhibitory concentration (IC50) with XAV 939 was greater than 5 µM.

Turning to AsPC-1 (pancreas, adherent), the AUC with GSK-650394 stood at 0.966; with NPK76-II-72-1, 0.923; with YK 4-279, 0.823; with Bexarotene, 0.975; in the experiment with AZD7762, 0.695; with BMS-345541, 0.919. The AUC with XAV 939 was 0.874. Also, the IC50 with GSK-650394 was greater than 16 µM; in the experiment with NPK76-II-72-1, greater than 10.2 µM; with YK 4-279, greater than 10 µM; with Bexarotene, greater than 8 µM; with AZD7762, 0.659 µM; in the experiment with BMS-345541, greater than 16 µM. In the experiment with XAV 939, the half-inhibitory concentration (IC50) was greater than 5 µM.

Turning to C32 (melanoma, adherent), the AUC with GSK-650394 is 0.987; with NPK76-II-72-1 it was 0.987; with YK 4-279, 0.851; with Bexarotene, 0.968; with AZD7762 it was 0.507; with BMS-345541, 0.889. Further, the AUC in the experiment with XAV 939 turned out to be 0.976. The IC50 was greater than 16 µM in the experiment with GSK-650394; greater than 10.2 µM in the experiment with NPK76-II-72-1; 8.48 µM with YK 4-279; greater than 8 µM with Bexarotene; 0.13 µM with AZD7762; greater than 16 µM with BMS-345541. The IC50 in the experiment with XAV 939 was greater than 5 µM.

For C-33-A (cervix, adherent), the AUC was found to be 0.753 in the experiment with GSK-650394; 0.495 with NPK76-II-72-1; 0.803 with YK 4-279; 0.852 with Bexarotene; 0.515 with AZD7762; 0.882 in the experiment with BMS-345541. Also, the AUC with XAV 939 was found to be 0.928. The IC50 with GSK-650394 is 5.36 µM; in the experiment with NPK76-II-72-1 it was 0.62 µM; in the experiment with YK 4-279, 4.99 µM; with Bexarotene, 6.19 µM; in the experiment with AZD7762, 0.138 µM; with BMS-345541, greater than 16 µM. For the same cell line, in the experiment with XAV 939, the IC50 is greater than 5 µM.

In the case of “CAL-12T (non-small cell lung carcinoma, adherent)”, the AUC in the experiment with GSK-650394 was found to be 0.606; in the experiment with NPK76-II-72-1 it was 0.906; in the experiment with YK 4-279 it was 0.689; with Bexarotene it was 0.783; in the experiment with AZD7762, 0.707; with BMS-345541, 0.699. Further, the AUC with XAV 939 worked out at 0.929. The 50% inhibitory concentration (IC50) is 2.03 µM with GSK-650394; greater than 10.2 µM with NPK76-II-72-1; 2.27 µM in the experiment with YK 4-279; 3.81 µM with Bexarotene; 0.518 µM with AZD7762; 3.9 µM with BMS-345541. For the same cell line, the IC50 with XAV 939 was greater than 5 µM.

By IC50 is commonly meant the concentration that gives 50% inhibition.
